# PubChem BioAssay AID686970 (National Center for Advancing Translational Sciences (NCATS), 2013)
# In all, about 360,000 compounds went through this assay and about 6,000 (1.7%) were called active. Inconclusive means that the source gave no clear call. Such entries were picked first, then a sample of the others. Calls follow the shape of the dose curve; as a rule, active = well fitted cell-killing curve with a large enough effect; inconclusive = small, poorly fitted or top-dose-only effect, or effect the other way; inactive = flat fitted curve, though single readings scatter. No potency is given beside an inconclusive call; the fits are too rough.
# Test: qHTS for induction of synthetic lethality in tumor cells producing 2HG: qHTS for the HT-1080-NT fibrosarcoma cell line;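 also: NT is the 2HG producing partner of a matched IDH1 knockdown line; nearly all actives have a fitted effect of over 55% in size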;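 as to activity, negative = less viability: 0% = DMSO-treated cells and -100% = media-only wells without cells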
# Details: HT-1080-NT fibrosarcoma viability, CellTiter-Glo ATP luminescence, 48 h; activity, negative = less viability: at 46.1 µM (top of the series) unless noted
# How it was run: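 Viability of the 2HG-overproducing fibrosarcoma line after 48 hours of compound exposure at 37 degrees C was determined by luminescence with CellTiter-Glo, and concentration-effect curves were then fitted and categorized.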
# Potency is read from the fitted curve at half-maximal effect; tags tell the direction and shape of the fitted curve.
SMILES,Potency,"activity, negative = less viability"
O=C(Nc1ccc(Cl)cc1)c1ccc(-n2cccn2)c([N+](=O)[O-])c1,"inconclusive [cytotoxic, single point]",
CCCCC1Cc2[nH]c(=S)[nH]c(=O)c2C(c2ccc3ccccc3c2)O1 (configuration not stated),"inconclusive [cytotoxic, single point]",
Cc1cc(C)c2c(c1)/C(=C/C(=O)c1ccc(Br)s1)C(=O)N2,"inconclusive [cytotoxic, single point]",
Cc1cc(NC(=O)c2ccccc2)sc1C,"inconclusive [cytotoxic, partial curve]",
O=C(Nc1ccc(Nc2ccccc2)cc1)c1ccc(Br)cc1,,inactive: -18.1%
Cc1ccc(-c2nnc(NC(=O)C3=COCCO3)o2)c(C)c1,,inactive: -3.39%
CC(C)CC(C(=O)NC1CCCCC1)N(Cc1cccs1)C(=O)c1snc(C(N)=O)c1N (configuration not stated),"inconclusive [cytotoxic, single point]",
Cc1cccnc1NC(=O)c1cccc(S(=O)(=O)N2CCN(c3ccc(F)cc3)CC2)c1,"inconclusive [cytotoxic, single point]",
O=C(CCn1cnnn1)N1CCCC(Nc2ccc(F)c(F)c2)C1 (configuration not stated),"inconclusive [rising, single point]",
COC(=O)C(NC(=O)c1ccccc1C)(Nc1ncc(S(=O)(=O)c2ccc([N+](=O)[O-])cc2)s1)C(F)(F)F (configuration not stated),"inconclusive [cytotoxic, single point]",
CN(C)CCC=C1c2ccccc2C=Cc2ccccc21,"inconclusive [cytotoxic, single point]",
CC(C)Nc1nc(NC(C)C)nc(N(C#N)CCOc2ccc(Cl)cc2Cl)n1,"inconclusive [cytotoxic, single point]",
CCOc1cc(C)c(C(C)C)cc1S(=O)(=O)n1cnc(C)c1,"inconclusive [cytotoxic, single point]",
O=C(OCc1cn(Cc2ccccc2)nn1)c1ccccc1,,inactive: -0.194%
Cc1ccccc1Nc1nc(N)nc(CN(C)Cc2ccccc2Cl)n1,"inconclusive [cytotoxic, single point]",
Cc1cn([C@@H](CCCCNC(=O)OC(C)(C)C)C(=O)NCCCCCCCCCCC(=O)N2CCN(C(=O)OC(C)(C)C)CC2)nn1,active: 20.6 µM,
Cc1c(C(=O)NCc2cccc(C(F)(F)F)c2)sc(=O)n1Cc1cccc(F)c1,"inconclusive [cytotoxic, single point]",
COc1cc(/C=N/N=C(/N)c2nonc2N)cc(Br)c1OCc1ccccc1C,"inconclusive [cytotoxic, single point]",
COc1ccc(-c2c[n+]3c(n2-c2ccccc2)CCCCC3)cc1,"inconclusive [cytotoxic, single point]",
CCOc1cc(-c2noc(-c3ccncc3)n2)cc(Br)c1OC,"inconclusive [cytotoxic, single point]",
CC(=O)NC1=NN(C(C)=O)C(C)(c2ccc(Cl)s2)S1 (configuration not stated),"inconclusive [cytotoxic, full curve]",
CC1CC(N(C(=O)c2ccc(Cl)cc2)c2ccccc2)c2ccccc2N1C(=O)c1ccco1 (configuration not stated),"inconclusive [cytotoxic, partial curve, poor fit]",
CN(C)C(=S)N=c1ssc(=S)n1Cc1ccccc1,active: 5.8 µM,

SMILES,Potency,"activity, negative = less viability"
CCCCNC(=O)C1(C)CCC(=O)N1CCc1c[nH]c2ccccc12 (configuration not stated),,inconclusive: 30.4%
Cc1cccc2cc(COC(=O)c3cccnc3)c(=O)[nH]c12,"inconclusive [rising, partial curve]",
O=C(Nc1ccccc1Cl)c1ccccc1CC(O)(c1ccccc1)c1ccccc1,"inconclusive [cytotoxic, single point]",
O=C(Nc1ccc(C(O)(C(F)(F)F)C(F)(F)F)cc1)c1ccc(Cl)c([N+](=O)[O-])c1,"inconclusive [cytotoxic, single point]",
OC(c1ccc(Cl)c(F)c1)c1ncc(-c2ccc(Cl)cc2)[nH]1 (configuration not stated),"inconclusive [cytotoxic, partial curve]",
CN(CC(=O)Nc1ccc(N2CCOCC2)cc1)C(=O)c1cn(-c2ccccc2)nc1-c1ccccc1,,inactive: -1.86%
CC(C)n1c(N)c(C#N)c2ccc([N+](=O)[O-])cc2c1=O,"inconclusive [cytotoxic, single point]",
COc1ccc(CN(C)CC(O)COc2ccc(-c3ccccc3)cc2)cc1OC (configuration not stated),"inconclusive [cytotoxic, single point]",
COc1ccc(CN2C(=O)/C(=C/c3ccncc3)SC2=S)cc1,"inconclusive [cytotoxic, single point]",
Oc1ccccc1-c1cc(-c2ccc(Cl)cc2)n[nH]1,"inconclusive [cytotoxic, partial curve]",
CCCOc1ccccc1/C=C1\SC(N2CCCCC2)=NC1=O,,inconclusive: -26.7% [cytotoxic]
CCC(OC(=O)c1nsc(Cl)c1Cl)C(=O)NCc1cccs1 (configuration not stated),"inconclusive [cytotoxic, full curve, poor fit]",
O=c1[nH]c(=O)n([C@H]2C[C@H](O)[C@@H](CO)O2)cc1F,active: 0.461 µM,
CSc1ccc(/C=N/NC(=O)c2ccc3nc[nH]c3c2)cc1,"inconclusive [cytotoxic, single point]",
COc1ccc(/C=C/C(=O)NCC(=O)N/N=C/c2cc(Br)ccc2OC)cc1,"inconclusive [cytotoxic, single point]",
CCOP(=O)(OCC)c1nc(-c2ccccc2Cl)oc1N1CCOCC1,,inconclusive: 31.7%
Cc1ccc(/C=N/NC(=O)CNC(=O)COc2ccccc2)cc1,"inconclusive [rising, partial curve]",
CCOc1ccc2[nH]c(C(=O)N/N=C/c3ccccc3OC)cc2c1,"inconclusive [cytotoxic, partial curve]",
Cn1c(Oc2ccccc2)c(C=O)c2ccccc21,"inconclusive [cytotoxic, single point]",
CC(C)(C)NCC(O)CON=C1c2ccccc2-c2ccccc21 (configuration not stated),active: 18.4 µM,
COc1ccc(C(NC(=O)CN2C(=O)NC3(CCc4ccccc43)C2=O)c2ccccc2)cc1 (configuration not stated),"inconclusive [cytotoxic, single point]",
Cc1nn(C)c(NC(=O)c2ccc(Cl)cc2)c1Cl,"inconclusive [cytotoxic, single point]",
COc1cnn(-c2ccc([N+](=O)[O-])cc2)c(=O)c1Cl,"inconclusive [cytotoxic, single point]",

SMILES,Potency,"activity, negative = less viability"
CCOc1ccc(N(CC(=O)Nc2ccc(OC)cc2)C2=NC3CS(=O)(=O)CC3S2)cc1 (configuration not stated),,inactive: -14.3%
CCOc1ccccc1N1C(=O)c2ccccc2N/C1=C\N1CCN(C(=O)c2ccco2)CC1,,inconclusive: -32.9% [cytotoxic]
Fc1cnc(Cl)nc1NC1CCCCC1,,inactive: -8.07%
COc1ccc(C(c2nnnn2CC2CCCO2)N2CCN(c3cccc(C)c3C)CC2)cc1 (configuration not stated),,inactive: -13.3%
N=c1c(C(=O)NCC2CCCO2)cc2c(=O)n3ccccc3nc2n1Cc1ccc(F)cc1 (configuration not stated),,inactive: -1.07%
Cc1nn(Cc2ccccc2Cl)c(C)c1C(=O)Nc1nnc(C2CC2)s1,"inconclusive [cytotoxic, partial curve]",
O=C(Nc1ccc(Cl)cc1)C1CCCCN1S(=O)(=O)c1ccccc1 (configuration not stated),"inconclusive [cytotoxic, single point]",
CC(=O)C1=C(c2ccccc2)N(C(C)=O)n2c(C)nnc2S1,"inconclusive [cytotoxic, single point]",
CC(=O)c1cccc(NC(=O)C2Cc3c(-c4ccccc4Oc4ccccc4)ccnc3O2)c1 (configuration not stated),"inconclusive [cytotoxic, single point]",
COC(=O)c1cc(=O)n(Cc2ccc3c(c2)OCO3)c(=Nc2ccccc2)s1,"inconclusive [cytotoxic, single point]",
CCCCC(=O)N(C)c1c(C)nc2ccc(C(=O)N3CCN(C(C)=O)CC3)cn12,"inconclusive [rising, single point]",
Cc1sc(NC(=O)CCl)c(C(=O)c2ccccc2)c1C,"inconclusive [cytotoxic, single point]",
COc1ccc(/C=N/n2c(=S)n(C)c3ccccc32)cc1OC,,inactive: 25.8% [at 9.24 µM]
COc1cc(Cl)c(C)cc1NC(=O)CSCC#N,active: 10 µM,
Nc1nc(N)c2cc(S(=O)(=O)c3ccc4ccccc4c3)ccc2n1,active: 8.2 µM,
CCc1c(C)nc2c(-c3ccccc3)c(-c3ccccc3)[nH]n2c1=O,,inactive: 16.8%
COc1ccc(NC(=O)c2cc([N+](=O)[O-])ccc2O)cc1,active: 20.6 µM,
CN1CCc2c(C#N)c(N3CCCCC3)nc(NCc3ccccc3)c2C1,"inconclusive [cytotoxic, single point]",
Fc1ccc(C2C3=C(Nc4ncnn42)c2ccccc2OC3c2ccncc2)cc1 (configuration not stated),"inconclusive [cytotoxic, single point]",
OC[C@@H]1CN(Cc2ccc(-c3ccccc3)cc2)C[C@H](n2cnc3c(Nc4ccccc4)ncnc32)O1,"inconclusive [cytotoxic, partial curve]",
CCC(CC)C(=O)N(C)c1c(C)nc2c(OCc3ccc(Cl)cc3)cccn12,"inconclusive [cytotoxic, single point]",
